Reference: PubChem BioAssay AID1508623 (National Center for Advancing Translational Sciences (NCATS), 2021)
Screen size: about 48,000 compounds; about 450 (0.94%) were called active. Not shown: some 19% with an inconclusive outcome. The call rests on the fitted dose curve; in most records, active means well fitted inhibition curve with a large enough effect; inconclusive means small, poorly fitted or top-dose-only effect; inactive means no such curve, though single readings can be large or run the other way. This is one part of the list.

Test: Primary qHTS for Identification of Small Molecule Inhibitors of Huntingtin Promoter Activity; further: nearly all actives have a fitted effect of over 50% in size
Conditions: HEK293 HTT promoter firefly luciferase reporter (activity 0% = vehicle and -100% = no light), 24 h; series mostly up to 57.5 µM; activity change, negative = inhibition: at the top concentration
Outline: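 Quantitative HTS used concentration series of up to 57.5 uM final on HEK293 luciferase reporter cells, 24 h at 37 degrees C. Readout was Dual-Glo firefly luminescence.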

Activity change, negative = inhibition, inactive:
CC(=O)Nc1ccc(-n2c(CCC(=O)O)ccc2-c2ccc(C)cc2)cc1 -24.8%
CCOC(=O)c1oc2ccc(S(=O)(=O)n3nc(-c4cc(OC)cc(OC)c4)cc3N)cc2c1C -25.6%
Cc1ccc(NC(=O)CSc2nc3c(oc4ccccc43)c(=O)n2Cc2ccco2)cc1 -11.2%
CCCn1c(=O)c2sccc2n2c(CCCC(=O)N3CCN(c4cccc(C)c4C)CC3)nnc12 -7.88%
CC(=O)N(Cc1cccnc1)c1nc2c(C)cccc2s1 -19.1%
Cn1cc(-c2cc3n(n2)CCC(=O)N3CCCC(=O)Nc2ccc(F)cc2F)c2ccccc21 0%
COc1ccc(CCn2c(=O)c3cccnc3n(CC(=O)Nc3cccc(C)c3)c2=O)cc1OC 10.4%
CCOC(=O)C1CCN(C(=O)Cn2nc(C)n3c(cc4cc(C)ccc43)c2=O)CC1 -9.48%
Cc1cc2nc(-c3ccc(Br)cc3)cc(C(F)(F)F)n2n1 -15.6%
CCc1ccc(-c2cn3c(n2)sc2cc(C(=O)NCC(C)c4ccccc4)ccc23)cc1 (stereo not given) -7.4%
Cc1nnc2c(N3CCN(c4ccccc4)CC3)nc3ccc(C(=O)c4ccccc4)cc3n12 -7.51%
O=C(C1CC1)N1CCc2cc(Br)cc(S(=O)(=O)N3CCN(c4ccccc4)CC3)c21 -6.59%
OCc1cccnc1 -4.22%
Cn1c(=O)c2sccc2n2c(CCC(=O)N3CCN(c4cccc(Cl)c4)CC3)nnc12 -10.6%
Cc1c(CNCCc2ccc(S(N)(=O)=O)cc2)c(C(=O)O)c(C)n1Cc1ccc(Cl)cc1 7.65%
CCCCC(=O)Nc1nnc(S(=O)(=O)N(CC)c2cc(C)cc(C)c2)s1 -10.4%
CCCCOC(=O)c1ccc(Nc2nc3ccccc3c3nnc(C)n23)cc1 6.12%
CN(C(=O)CSc1nc2ccccc2n1CC(=O)N(C)c1ccc(F)cc1)c1ccccc1 -6.76%
CCc1ccccc1NC(=O)Cn1nnc(C(=O)NCc2cccs2)c1N -21.9%
O=C(CSc1nccn1Cc1ccc(F)cc1)Nc1ccc2c(c1)OCO2 -31.4%
COc1ccc(CNCCSc2nnnn2-c2ccccc2)c(OC)c1 -14.8%
Cc1nc(-c2cccc(F)c2)sc1CCNC(=O)c1ccc(F)c(F)c1 -29.2%
COc1ccc(Cn2ccnc2SCC(=O)NCc2ccccc2)cc1 -34.2%
CCC1CCCCN1C(=O)c1nn(-c2ccc(C)cc2)c(=O)c2c1c1ccccc1n2C (stereo not given) 2.05%
CCOc1ccc(CCNC(=O)c2cnc3sc(N4CCOCC4)nn3c2=O)cc1 2.36%
COc1ccccc1-c1ccnc2[nH]n(-c3ccccc3)c(=O)c12 -11.2%
Cc1cccc(N2CCN(c3nc4ccccc4c(=O)n3-c3ccc(Cl)cc3)CC2)c1C -26.8%
CCc1cccc(C)c1NC(=O)Cn1c(=O)cc(C(F)(F)F)c2c(C)nn(C)c21 1.73%
Cc1ccc(N2CCN(C(=O)c3ccc4c(Cl)c5c(nc4c3)CCCC5)CC2)c(C)c1 -6.14%
O=C(Nc1ccc(F)cc1F)c1c2c(nc3ccccc13)C(=O)N(C1CCCCC1)C2 -16.7%
O=C(NCc1cccs1)C1CCN(C(=O)N2CCOc3ccccc32)CC1 -12.8%
O=C(Nc1c(-c2ccccc2)nc2ccccn12)c1ccc(Br)cc1 -10.7%
O=C(CSc1nc2c([nH]c3ccccc32)c(=O)n1-c1ccccc1)c1ccccc1 0.29%
CCOC(=O)c1cc(OC(=O)c2ccc(Cl)cc2)n(-c2ccccc2)n1 2.85%
COc1ccc(C2C(=O)N(C3CCCCC3)CC(=O)N2Cc2ccccc2Cl)cc1OC (stereo not given) 3.62%
COc1ccc(-c2nn(CC(=O)Nc3ccccc3F)c3c2cnc2ccc(F)cc23)cc1 39.7%
Cc1ccc(-c2nc(S(=O)(=O)c3ccc(C)cc3)c(N3CCN(c4ccccc4)CC3)o2)cc1 -10.7%
Cc1ccc(C)c(N2CCN(CCCNC(=O)Cn3ncc4c([nH]c5ccccc54)c3=O)CC2)c1 -1.79%
CCN(CC)CCNC(=O)c1cc(Cl)c(N)cc1OC 6.68%
COc1ccc(CNC(=O)Cn2ncn3nc(-c4cccs4)cc3c2=O)cc1 -1.76%
COc1ccc(N2CCN(S(=O)(=O)CCNC(=O)c3ccc(C(F)(F)F)cc3)CC2)cc1 -25.5%
CCCCCn1c(=O)[nH]c2cc(C(=O)NCc3ccc(OC)cc3)ccc2c1=O -9.83%
CC(=O)NCCC(=O)N[C@@H](CCC(N)=O)C(=O)N[C@@H](CO)C(=O)N[C@@H](CCC(N)=O)C(=O)N[C@@H](CCC(N)=O)C(=O)N[C@H](C(=O)N[C@@H](Cc1ccccc1)C(=O)N[C@]1(C)CCCCCCC=CCCC[C@@](C)(C(=O)N[C@@H](CCC(N)=O)C(=O)N[C@@H](CC(N)=O)C(N)=O)NC(=O)[C@H](CC(C)C)NC(=O)[C@H](CC(C)C)NC(=O)[C@@H](CCCNC(=N)N)NC(=O)[C@H](Cc2c[nH]c3ccccc23)NC(=O)[C@H](CC(C)C)NC(=O)[C@H](CC(N)=O)NC1=O)[C@H](C)O -19.2%
CCCC(=O)O[C@]1(C(=O)CCl)[C@@H](C)C[C@H]2[C@@H]3CCC4=CC(=O)C=C[C@]4(C)[C@@]3(F)C(=O)C[C@@]21C -17%
CCOC(=O)c1ccc(NC(=O)CCS(=O)(=O)c2ccc3c(c2)oc(=O)n3C)cc1 -9.15%
CCCCN(CCCC)CCNC(=O)CN1C(=O)CSc2ccc(S(=O)(=O)N3CCCCC3)cc21 -13%
Cc1cccc(CN2C(=O)CC(c3ccc(Cl)cc3)c3c(C)nn(-c4nc(C)cc(C)n4)c32)c1 (stereo not given) -29.7%
COc1ccccc1N(CC(=O)Nc1ccccc1F)S(C)(=O)=O -7.65% [at 11.5 µM]
CCOc1ccc(-n2nc3cc(C)c(NC(=O)CC)cc3n2)cc1 -13% [at 11.5 µM]
CCc1ccc(NC(=O)C(CC)n2nnc(C(=O)OC)c2C(=O)OC)cc1 (stereo not given) 28.8%
COc1ccc(C2NC(=O)c3c(sc4c3CCN(C)C4)N2)cc1O (stereo not given) 4.26%
CCN(CCCNC(=O)c1cc2c(=O)[nH]c3ccc(C)cc3c2s1)c1ccc(C)cc1 -18.8%
Cc1ccc(Cl)cc1N1CCN(S(=O)(=O)c2ccc3[nH]c4c(c3c2)CCCC4)CC1 -20%
CCOc1ccc2ccccc2c1C(=O)N[C@@H]1C(=O)N2[C@@H]1SC(C)(C)[C@@H]2C(=O)O 11.6%
Cc1cccc(N2CCN(C(=O)C3CCN(S(=O)(=O)c4cn(C)cn4)CC3)CC2)c1C -21.3%
CCCN1C(=O)c2ccccc2CC1(C)C(=O)NC1CCCCC1 (stereo not given) -24.2%
COc1ccccc1NC(=O)C1CCN(S(=O)(=O)c2ccc3c(c2)oc(=O)n3C)CC1 -13.4%
Cc1ccc(NC(=O)N2CCN(c3nnc(C)c4c(C)n(-c5ccccc5)nc34)CC2)cc1Cl -5.5%
CN(C)C/C=C(/c1ccc(Br)cc1)c1cccnc1 8.87%
O=C(NCc1ccc2c(c1)OCO2)c1ccc2c(c1)N(Cc1ccc(F)cc1)C(=O)c1ccccc1S2=O (stereo not given) -19.8%
Cc1ccc2nc(N(Cc3cccnc3)C(=O)c3ccc4c(c3)OCCO4)sc2c1 1.23%
CCN(c1ccc(Cl)cc1)S(=O)(=O)c1nnc(NC(=O)C2CCCCC2)s1 -25.3%
CCOCCc1nn2c(=O)cc(COC(=O)c3cccs3)nc2s1 26.9%
Cc1cc(C)cc(-n2c(SCC(=O)NCC3CCCO3)nc3c([nH]c4ccccc43)c2=O)c1 (stereo not given) 25.1%
CCOc1ccc(-c2cc(NC(=O)c3ccc(C)cc3)c(C(=O)OC)s2)cc1 12.9%
COc1ccc2c(c1)-c1nc(NC(=O)c3ccc(C)cc3)sc1CC2 -4.95%
Cn1cnc2c1c(=O)[nH]c(=O)n2C 10.6%
CCCC(=O)C1=C(c2ccc(C)c(C)c2)N(C(=O)CCC)n2c(CC)nnc2S1 -28.6%
COc1ccc(-c2noc(-c3ccc(NCCc4ccccc4)c([N+](=O)[O-])c3)n2)cc1OC -9.85%
O=C(Cn1ncc2c3ccccc3n(Cc3ccccc3)c2c1=O)Nc1ccccc1C(F)(F)F 0%
CC(C)c1ccc(NS(=O)(=O)c2ccc3[nH]cc(C(=O)N4CCCC4)c(=O)c3c2)cc1 7.55%
COc1cccc(CNC(=O)Cc2c(C)c3c(cc(C)c4c(C)coc43)oc2=O)c1 0.742%
CCOc1ccc(NC(=O)Nc2ccc3snnc3c2)cc1 -8.01%
CC(=O)N1CCC2(CC1)OC(=O)C(C)=C2C(=O)NCc1ccc(Cl)cc1 -5.04%
CCc1ccc(CNC(=O)c2ccc3nc(C(C)C)oc3c2)cc1 -2.88%
Cc1nn(-c2nc(-c3ccc(F)cc3)cc(C(F)(F)F)n2)c(C)c1Cl -28%
CC1=NN(c2ccccc2)C(=O)C1
COc1ccc(OC(C)c2nc3ccccc3[nH]2)cc1 (stereo not given) 14.7%
CCc1ccc(NC(=O)C(=O)NCC(c2cccnc2)N2CCN(C)CC2)cc1 (stereo not given) -15.1%
COC(=O)c1ccc(Cl)cc1NC(=O)N(C)CCc1c(C)nn(C)c1C -15.8%
CCOc1ccc(NC(=O)Cn2cc(C(=O)c3ccc(C)c(C)c3)c(=O)c3cc(OC)c(OC)cc32)cc1 -13.7%
COc1cc(NC(=O)C(CC(C)C)NS(=O)(=O)c2ccc3c(c2)oc(=O)n3C)c(C(=O)O)cc1OC (stereo not given) -2.21%
O=c1cc(-c2ccc(F)cc2)nc(SCc2nc(-c3ccccc3Cl)no2)[nH]1 -0.233%
COc1cc(C(=O)Nc2ccc(NC(=O)c3ccc(Br)cc3)cc2)cc(OC)c1OC -14.9% [at 11.5 µM]
COc1ccc(CCn2c3c(c(=O)[nH]c2=O)C(NC(=O)c2ccccc2OC)(C(F)(F)F)C(=O)N3)cc1OC (stereo not given) -11.2%
Cc1oc(-c2cccc(Cl)c2)nc1CSc1nc2ncccc2[nH]1 -10.3%
O=C(COc1ccccc1Cl)Nc1ccc(Cl)c(-c2nc3ccccc3o2)c1 -15.5%
Cc1cccc(N2CCN(C(=O)c3cc4c(=O)n(C)c5ccccc5c4s3)CC2)c1C -2.96%
O=C(CCS(=O)(=O)c1cc2c3c(c1)CCN3C(=O)CC2)NCc1ccc(Cl)cc1 -32.1%
COc1ccc(/C=C/c2nc(C#N)c(NC3CCCCC3)o2)cc1OC 2.37%
